This is one part of the list.
Columns and labels:
Assay in all cases: glycan array binding signal (z-score within array); higher = stronger binding
Settings in all cases: glycan notation: IUPAC condensed, linker removed
[1] = biological target: GlcNAc(b1-3)Gal(b1-4)GlcNAc(b1-2)Man(a1-3)[GlcNAc(b1-3)Gal(b1-4)GlcNAc(b1-2)Man(a1-6)]Man(b1-4)GlcNAc(b1-4)[Fuc(a1-6)]GlcNAc
In short: (§1)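 The Consortium for Functional Glycomics database supplied 3228 glycan arrays, of which those lacking an available protein sequence were dropped. The binding signal, a within-array Z-score, was averaged across arrays of the same protein sequence and across linkers. Negative scores can be read as non-binding.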

[2] = biological target: GlcNAc(b1-3)Gal(b1-4)GlcNAc(b1-2)[GlcNAc(b1-3)Gal(b1-4)GlcNAc(b1-6)]Man(a1-6)[GlcNAc(b1-3)Gal(b1-4)GlcNAc(b1-2)Man(a1-3)]Man(b1-4)GlcNAc(b1-4)GlcNAc
In short: as §1

[3] = biological target: GlcNAc(b1-3)Gal(b1-4)GlcNAc(b1-3)Gal(b1-4)GlcNAc
In short: as §1

[4] = biological target: GlcNAc(b1-3)Gal(b1-4)GlcNAc(b1-3)Gal(b1-4)GlcNAc(b1-2)Man(a1-3)[GlcNAc(b1-3)Gal(b1-4)GlcNAc(b1-3)Gal(b1-4)GlcNAc(b1-2)Man(a1-6)]Man(b1-4)GlcNAc(b1-4)GlcNAc
In short: as §1

[5] = biological target: GlcNAc(b1-3)Gal(b1-4)GlcNAc(b1-3)Gal(b1-4)GlcNAc(b1-2)Man(a1-3)[GlcNAc(b1-3)Gal(b1-4)GlcNAc(b1-3)Gal(b1-4)GlcNAc(b1-2)Man(a1-6)]Man(b1-4)GlcNAc(b1-4)[Fuc(a1-6)]GlcNAc
In short: as §1

[6] = biological target: GlcNAc(b1-3)Gal(b1-4)GlcNAc(b1-3)Gal(b1-4)GlcNAc(b1-2)[GlcNAc(b1-3)Gal(b1-4)GlcNAc(b1-3)Gal(b1-4)GlcNAc(b1-6)]Man(a1-6)[GlcNAc(b1-3)Gal(b1-4)GlcNAc(b1-3)Gal(b1-4)GlcNAc(b1-2)Man(a1-3)]Man(b1-4)GlcNAc(b1-4)[Fuc(a1-6)]GlcNAc
In short: as §1

[7] = biological target: GlcNAc(b1-3)Gal(b1-4)GlcNAc(b1-3)Gal(b1-4)GlcNAc(b1-3)Gal(b1-4)GlcNAc(b1-2)Man(a1-3)[GlcNAc(b1-3)Gal(b1-4)GlcNAc(b1-3)Gal(b1-4)GlcNAc(b1-3)Gal(b1-4)GlcNAc(b1-2)Man(a1-6)]Man(b1-4)GlcNAc(b1-4)GlcNAc
In short: as §1

[8] = biological target: GlcNAc(b1-3)Gal(b1-4)GlcNAc(b1-3)Gal(b1-4)GlcNAc(b1-3)Gal(b1-4)GlcNAc(b1-2)Man(a1-3)[GlcNAc(b1-3)Gal(b1-4)GlcNAc(b1-3)Gal(b1-4)GlcNAc(b1-3)Gal(b1-4)GlcNAc(b1-2)Man(a1-6)]Man(b1-4)GlcNAc(b1-4)[Fuc(a1-6)]GlcNAc
In short: as §1

[9] = biological target: GlcNAc(b1-3)Gal(b1-4)GlcNAc(b1-3)Gal(b1-4)GlcNAc(b1-3)Gal(b1-4)GlcNAc(b1-2)[GlcNAc(b1-3)Gal(b1-4)GlcNAc(b1-3)Gal(b1-4)GlcNAc(b1-3)Gal(b1-4)GlcNAc(b1-6)]Man(a1-6)[GlcNAc(b1-3)Gal(b1-4)GlcNAc(b1-3)Gal(b1-4)GlcNAc(b1-3)Gal(b1-4)GlcNAc(b1-2)Man(a1-3)]Man(b1-4)GlcNAc(b1-4)[Fuc(a1-6)]GlcNAc
In short: as §1

[10] = biological target: GlcNAc(b1-3)Gal(b1-4)GlcNAc(b1-3)Gal(b1-4)GlcNAc(b1-3)Gal(b1-4)GlcNAc(b1-3)Gal(b1-4)GlcNAc(b1-2)Man(a1-3)[GlcNAc(b1-3)Gal(b1-4)GlcNAc(b1-3)Gal(b1-4)GlcNAc(b1-3)Gal(b1-4)GlcNAc(b1-3)Gal(b1-4)GlcNAc(b1-2)Man(a1-6)]Man(b1-4)GlcNAc(b1-4)GlcNAc
In short: as §1

[11] = biological target: GlcNAc(b1-3)Gal(b1-4)GlcNAc(b1-3)Gal(b1-4)GlcNAc(b1-3)Gal(b1-4)GlcNAc(b1-3)Gal(b1-4)GlcNAc(b1-2)Man(a1-3)[GlcNAc(b1-3)Gal(b1-4)GlcNAc(b1-3)Gal(b1-4)GlcNAc(b1-3)Gal(b1-4)GlcNAc(b1-3)Gal(b1-4)GlcNAc(b1-2)Man(a1-6)]Man(b1-4)GlcNAc(b1-4)[Fuc(a1-6)]GlcNAc
In short: as §1

[12] = biological target: GlcNAc(b1-3)Gal(b1-4)GlcNAc(b1-3)Gal(b1-4)GlcNAc(b1-3)Gal(b1-4)GlcNAc(b1-3)Gal(b1-4)GlcNAc(b1-2)[GlcNAc(b1-3)Gal(b1-4)GlcNAc(b1-3)Gal(b1-4)GlcNAc(b1-3)Gal(b1-4)GlcNAc(b1-3)Gal(b1-4)GlcNAc(b1-6)]Man(a1-6)[GlcNAc(b1-3)Gal(b1-4)GlcNAc(b1-3)Gal(b1-4)GlcNAc(b1-3)Gal(b1-4)GlcNAc(b1-3)Gal(b1-4)GlcNAc(b1-2)Man(a1-3)]Man(b1-4)GlcNAc(b1-4)[Fuc(a1-6)]GlcNAc
In short: as §1

[13] = biological target: GlcNAc(b1-3)Gal(b1-4)GlcNAc(b1-3)Gal(b1-4)GlcNAc(b1-3)GalNAc
In short: as §1

[14] = biological target: GlcNAc(b1-3)Gal(b1-4)GlcNAc(b1-3)GalNAc
In short: as §1

[15] = biological target: GlcNAc(b1-3)Gal(b1-4)GlcNAc(b1-3)[GlcNAc(b1-3)Gal(b1-4)GlcNAc(b1-3)]GalNAc
In short: as §1

[16] = biological target: GlcNAc(b1-3)Gal(b1-4)GlcNAc(b1-6)[Gal(b1-3)]GalNAc
In short: as §1

[17] = biological target: GlcNAc(b1-3)Gal(b1-4)GlcNAc(b1-6)[GlcNAc(b1-3)Gal(b1-3)]GalNAc
In short: as §1

[18] = biological target: GlcNAc(b1-3)Gal(b1-4)GlcNAc(b1-6)[GlcNAc(b1-3)]Gal(b1-4)GlcNAc
In short: as §1

[19] = biological target: GlcNAc(b1-3)GalNAc
In short: as §1

[20] = biological target: GlcNAc(b1-3)Man
In short: as §1

[21] = biological target: GlcNAc(b1-3)[GlcNAc(b1-4)][GlcNAc(b1-6)]GlcNAc
In short: as §1

[22] = biological target: GlcNAc(b1-3)[GlcNAc(b1-6)]Gal(b1-4)GlcNAc
In short: as §1

[23] = biological target: GlcNAc(b1-3)[GlcNAc(b1-6)]GalNAc
In short: as §1

[24] = biological target: GlcNAc(b1-3)[GlcNAc(b1-6)]GlcNAc
In short: as §1

[25] = biological target: GlcNAc(b1-4)Gal(b1-4)GlcNAc
In short: as §1

[26] = biological target: GlcNAc(b1-4)GlcNAc
In short: as §1

[27] = biological target: GlcNAc(b1-4)GlcNAc(b1-4)GlcNAc
In short: as §1

[28] = biological target: GlcNAc(b1-4)GlcNAc(b1-4)GlcNAc(b1-4)GlcNAc(b1-4)GlcNAc
In short: as §1

[29] = biological target: GlcNAc(b1-4)GlcNAc(b1-4)GlcNAc(b1-4)GlcNAc(b1-4)GlcNAc(b1-4)GlcNAc
In short: as §1

[30] = biological target: GlcNAc(b1-4)[GlcNAc(b1-6)]GalNAc
In short: as §1

[31] = biological target: GlcNAc(b1-6)Gal(b1-4)GlcNAc
In short: as §1

[32] = biological target: GlcNAc(b1-6)GalNAc
In short: as §1

[33] = biological target: GlcNAc6S(b1-3)Gal(b1-4)GlcNAc
In short: as §1

[34] = biological target: Kdn(a2-3)Gal(b1-3)GalNAc
In short: as §1

[35] = biological target: Kdn(a2-3)Gal(b1-3)GlcNAc
In short: as §1

[36] = biological target: Kdn(a2-3)Gal(b1-4)Glc
In short: as §1

[37] = biological target: Kdn(a2-3)Gal(b1-4)GlcNAc
In short: as §1

B1: MGL1 (Mus musculus), P49300 (protein)
chain: MIYENLQNSRIEEKTQEPGKAPSQSFLWRILSWTHLLLFSLGLSLLLLVVVSVIGSQNSQLRRDLGTLRATLDNTTSKIKAEFQSLDSRADSFEKGISSLKVDVEDHRQELQAGRDLSQKVTSLESTVEKREQALKTDLSDLTDHVQQLRKDLKALTCQLANLKNNGSEVACCPLHWTEHEGSCYWFSESEKSWPEADKYCRLENSHLVVVNSLEEQNFLQNRLANVVSWIGLTDQNGPWRWVDGTDFEKGFKNWAPLQPDNWFGHGLGGGEDCAHITTGGPWNDDVCQRTFRWICEMKLAKES
[1]
  glycan array binding signal (z-score): -0.068
[2]
  glycan array binding signal (z-score): -0.035
[3]
  glycan array binding signal (z-score): -0.131
[4]
  glycan array binding signal (z-score): 0.529
[5]
  glycan array binding signal (z-score): 0.033
[6]
  glycan array binding signal (z-score): 1.01
[7]
  glycan array binding signal (z-score): -0.233
[8]
  glycan array binding signal (z-score): -0.262
[9]
  glycan array binding signal (z-score): 0.778
[10]
  glycan array binding signal (z-score): 0.039
[11]
  glycan array binding signal (z-score): -0.209
[12]
  glycan array binding signal (z-score): -0.096
[13]
  glycan array binding signal (z-score): -0.832
[14]
  glycan array binding signal (z-score): -0.589
[15]
  glycan array binding signal (z-score): -0.36
[16]
  glycan array binding signal (z-score): -1
[17]
  glycan array binding signal (z-score): -0.907
[18]
  glycan array binding signal (z-score): -0.208
[19]
  glycan array binding signal (z-score): -0.669
[20]
  glycan array binding signal (z-score): -0.612
[21]
  glycan array binding signal (z-score): 0.442
[22]
  glycan array binding signal (z-score): -0.194
[23]
  glycan array binding signal (z-score): -0.368
[24]
  glycan array binding signal (z-score): -0.161
[25]
  glycan array binding signal (z-score): -0.597
[26]
  glycan array binding signal (z-score): -0.241
[27]
  glycan array binding signal (z-score): -0.529
[28]
  glycan array binding signal (z-score): -0.509
[29]
  glycan array binding signal (z-score): -0.497
[30]
  glycan array binding signal (z-score): -0.44
[31]
  glycan array binding signal (z-score): -0.234
[32]
  glycan array binding signal (z-score): 0.042
[33]
  glycan array binding signal (z-score): -0.476
[34]
  glycan array binding signal (z-score): -0.08
[35]
  glycan array binding signal (z-score): -0.559
[36]
  glycan array binding signal (z-score): 0.226
[37]
  glycan array binding signal (z-score): 0.121

From the supplement of paper PMC8728848
